Source: the supplement of paper PMC4967469
The IC50 comes from the fitted curve, where viability falls to half of the control; fits outside the tested doses are given as limits. For AUC the same curve is integrated over the 256-fold range of doses and scaled to a fraction; values near 1 show little effect. An inferred top dose was calculated from the reported fits.

What follows are cell lines tested with CCn1cc(-c2ccnc3[nH]c(-c4cccc(CN(C)C)c4)cc23)c(-c2ccc(NC(=O)N(C)C)cc2)n1 [GSK1070916] (assay: Viability of human cancer cell lines after 72 h of drug (GDSC screen)). Settings: top dose inferred.
Procedure: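 Human cancer cell lines in 384-well plates, medium with 10% serum, drug for 72 h over a 256-fold dose range (nine 2-fold or five 4-fold steps up to the top dose). Adherent lines were fixed and stained with the nucleic acid dye Syto60, suspension lines read with resazurin; signal relative to control wells, capped at 0 and 100%. One two-parameter sigmoid per drug and line, fitted in a mixed model over all curves with the slope shared within a line.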
“MKN45 (stomach, adherent, top dose 2.56 µM)” showed an AUC of 0.937 and an IC50 greater than 2560 nM. “SUIT-2 (pancreas, adherent, top dose 2.56 µM)” gave an AUC of 0.861 and an IC50 of 2340 nM. “AM-38 (glioma, semi-adherent, top dose 2.56 µM)” showed an AUC of 0.881 and an IC50 greater than 2560 nM. Work on “CAL-51 (breast, adherent, top dose 2.56 µM)” yielded an AUC of 0.981 and an IC50 greater than 2560 nM. “KNS-81-FD (glioma, adherent, top dose 2.56 µM)” was tested, and the AUC was 0.974 and the IC50 was greater than 2560 nM. Cell Line A388 (skin, adherent, top dose 2.56 µM) has an AUC of 0.912 and an IC50 greater than 2560 nM. Cell Line “8505C (thyroid, adherent, top dose 2.56 µM)” has an AUC of 0.884 and an IC50 greater than 2560 nM. “HT-144 (melanoma, adherent, top dose 2.56 µM)” showed an AUC of 0.977 and an IC50 greater than 2560 nM. Cell Line “SK-PN-DW (Ewing sarcoma, adherent, top dose 2.56 µM)” has an AUC of 0.549 and an IC50 of 219 nM. With “OV-7 (ovary, adherent, top dose 2.56 µM)” the AUC was 0.842 and the IC50 was greater than 2560 nM. “AN3-CA (endometrium, adherent, top dose 2.56 µM)” showed an AUC of 0.914 and an IC50 greater than 2560 nM. In the case of “A2780 (ovary, semi-adherent, top dose 2.56 µM)”, the AUC is reported as 0.45 and the IC50 is reported as 117 nM. “L-428 (Hodgkin lymphoma, suspension, top dose 2.56 µM)” was tested, and the AUC was 0.972 and the IC50 was greater than 2560 nM. For “A204 (rhabdomyosarcoma, adherent, top dose 2.56 µM)”, the AUC was 0.873 and the IC50 was greater than 2560 nM. Cell Line “NCI-H1573 (lung adenocarcinoma, adherent, top dose 2.56 µM)” has an AUC of 0.99 and an IC50 greater than 2560 nM. “NCC021 (kidney, adherent, top dose 2.56 µM)” was tested, and the AUC was 0.985 and the IC50 was greater than 2560 nM. In the case of “JHU-022 (head and neck, adherent, top dose 2.56 µM)”, the AUC is reported as 0.922 and the IC50 is reported as greater than 2560 nM. “A704 (kidney, adherent, top dose 2.56 µM)” showed an AUC of 0.989 and an IC50 greater than 2560 nM. Cell Line “HCC-827 (lung adenocarcinoma, adherent, top dose 2.56 µM)” has an AUC of 0.974 and an IC50 greater than 2560 nM. For “NCI-H748 (small cell lung carcinoma, suspension, top dose 2.56 µM)”, the AUC was 0.781 and the IC50 was 1380 nM. In the case of “TE-12 (oesophagus, suspension, top dose 2.56 µM)”, the AUC is reported as 0.861 and the IC50 is reported as greater than 2560 nM. “NCI-H64 (small cell lung carcinoma, suspension, top dose 2.56 µM)” was tested, and the AUC was 0.996 and the IC50 was greater than 2560 nM. “Caov-3 (ovary, adherent, top dose 2.56 µM)” gave an AUC of 0.233 and an IC50 of 30.3 nM. In the case of “P30-OHK (lymphoblastic leukaemia, suspension, top dose 2.56 µM)”, the AUC is reported as 0.019 and the IC50 is reported as less than 10 nM. “A4-Fuk (B-cell lymphoma, suspension, top dose 2.56 µM)” gave an AUC of 0.869 and an IC50 of 2550 nM. For “SNU-81 (large intestine, adherent, top dose 2.56 µM)”, the AUC was 0.908 and the IC50 was greater than 2560 nM. In the case of “OCI-M1 (acute myeloid leukaemia, suspension, top dose 2.56 µM)”, the AUC is reported as 0.868 and the IC50 is reported as 1460 nM. “NCI-H28 (mesothelioma, adherent, top dose 2.56 µM)” gave an AUC of 0.958 and an IC50 greater than 2560 nM. Work on “HuP-T3 (pancreas, adherent, top dose 2.56 µM)” yielded an AUC of 0.922 and an IC50 greater than 2560 nM. For “D-263MG (glioma, adherent, top dose 2.56 µM)”, the AUC was 0.982 and the IC50 was greater than 2560 nM. “ES5 (Ewing sarcoma, adherent, top dose 2.56 µM)” showed an AUC of 0.438 and an IC50 of 106 nM. In the case of “OV-17R (ovary, adherent, top dose 2.56 µM)”, the AUC is reported as 0.938 and the IC50 is reported as greater than 2560 nM. “PCI-15A (head and neck, adherent, top dose 2.56 µM)” showed an AUC of 0.965 and an IC50 greater than 2560 nM. “LAMA-84 (chronic myeloid leukaemia, suspension, top dose 2.56 µM)” was tested, and the AUC was 0.849 and the IC50 was 1970 nM. “GOTO (neuroblastoma, adherent, top dose 2.56 µM)” was tested, and the AUC was 0.972 and the IC50 was greater than 2560 nM. “NOMO-1 (acute myeloid leukaemia, suspension, top dose 2.56 µM)” gave an AUC of 0.473 and an IC50 of 134 nM. “KINGS-1 (glioma, adherent, top dose 2.56 µM)” showed an AUC of 0.965 and an IC50 greater than 2560 nM. “BHT-101 (thyroid, adherent, top dose 2.56 µM)” gave an AUC of 0.961 and an IC50 greater than 2560 nM. For “LC4-1 (lymphoblastic leukaemia, suspension, top dose 2.56 µM)”, the AUC was 0.615 and the IC50 was 343 nM. In the case of “VM-CUB-1 (bladder, adherent, top dose 2.56 µM)”, the AUC is reported as 0.988 and the IC50 is reported as greater than 2560 nM. “PANC-10-05 (pancreas, adherent, top dose 2.56 µM)” gave an AUC of 0.903 and an IC50 greater than 2560 nM. Cell Line “KMS-12-BM (myeloma, suspension, top dose 2.56 µM)” has an AUC of 0.794 and an IC50 of 954 nM. “LXF-289 (lung adenocarcinoma, adherent, top dose 2.56 µM)” was tested, and the AUC was 0.82 and the IC50 was 1440 nM. “RPMI-8226 (myeloma, suspension, top dose 2.56 µM)” was tested, and the AUC was 0.91 and the IC50 was greater than 2560 nM. “TYK-nu (ovary, adherent, top dose 2.56 µM)” was tested, and the AUC was 0.983 and the IC50 was greater than 2560 nM. For “HuH-7 (liver, adherent, top dose 2.56 µM)”, the AUC was 0.98 and the IC50 was greater than 2560 nM. “D-336MG (glioma, adherent, top dose 2.56 µM)” gave an AUC of 0.884 and an IC50 greater than 2560 nM. In the case of “SK-MEL-5 (melanoma, adherent, top dose 2.56 µM)”, the AUC is reported as 0.981 and the IC50 is reported as greater than 2560 nM. “KP-2 (pancreas, adherent, top dose 2.56 µM)” gave an AUC of 0.942 and an IC50 greater than 2560 nM. Cell Line “COR-L95 (small cell lung carcinoma, adherent, top dose 2.56 µM)” has an AUC of 0.946 and an IC50 greater than 2560 nM. Work on “NCI-H847 (small cell lung carcinoma, adherent, top dose 2.56 µM)” yielded an AUC of 0.044 and an IC50 of less than 10 nM. With “WM35 (melanoma, adherent, top dose 2.56 µM)” the AUC was 0.911 and the IC50 was greater than 2560 nM. For “HMV-II (melanoma, adherent, top dose 2.56 µM)”, the AUC was 0.951 and the IC50 was greater than 2560 nM. Work on “COLO-684 (endometrium, suspension, top dose 2.56 µM)” yielded an AUC of 0.879 and an IC50 greater than 2560 nM. With “MCF7 (breast, adherent, top dose 2.56 µM)” the AUC was 0.986 and the IC50 was greater than 2560 nM. For “GCT (soft tissue, adherent, top dose 2.56 µM)”, the AUC was 0.989 and the IC50 was greater than 2560 nM. Work on “DOK (head and neck, adherent, top dose 2.56 µM)” yielded an AUC of 0.971 and an IC50 greater than 2560 nM. Cell Line “MFE-296 (endometrium, adherent, top dose 2.56 µM)” has an AUC of 0.969 and an IC50 greater than 2560 nM. Cell Line “IST-SL1 (small cell lung carcinoma, semi-adherent, top dose 2.56 µM)” has an AUC of 0.172 and an IC50 of 15.5 nM. Cell Line “Calu-3 (lung adenocarcinoma, adherent, top dose 2.56 µM)” has an AUC of 0.942 and an IC50 greater than 2560 nM. For “SU-DHL-10 (B-cell lymphoma, suspension, top dose 2.56 µM)”, the AUC was 0.096 and the IC50 was 15.7 nM. “SF295 (glioma, adherent, top dose 2.56 µM)” gave an AUC of 0.928 and an IC50 greater than 2560 nM. Work on “TC-71 (Ewing sarcoma, adherent, top dose 2.56 µM)” yielded an AUC of 0.312 and an IC50 of 52.9 nM. For “SW1463 (large intestine, adherent, top dose 2.56 µM)”, the AUC was 0.965 and the IC50 was greater than 2560 nM. For “KS-1 (glioma, adherent, top dose 2.56 µM)”, the AUC was 0.914 and the IC50 was greater than 2560 nM. With “SW620 (large intestine, adherent, top dose 2.56 µM)” the AUC was 0.856 and the IC50 was 1690 nM. For “NCI-H1092 (small cell lung carcinoma, suspension, top dose 2.56 µM)”, the AUC was 0.93 and the IC50 was greater than 2560 nM. “MHH-ES-1 (Ewing sarcoma, adherent, top dose 2.56 µM)” gave an AUC of 0.199 and an IC50 of 20.8 nM. HLE (liver, adherent, top dose 2.56 µM) gave an AUC of 0.955 and an IC50 greater than 2560 nM. For “639-V (bladder, adherent, top dose 2.56 µM)”, the AUC was 0.989 and the IC50 was greater than 2560 nM. Cell Line “8305C (thyroid, adherent, top dose 2.56 µM)” has an AUC of 0.96 and an IC50 greater than 2560 nM. With “PA-TU-8988T (pancreas, adherent, top dose 2.56 µM)” the AUC was 0.982 and the IC50 was greater than 2560 nM. With “OVCAR-5 (ovary, adherent, top dose 2.56 µM)” the AUC was 0.969 and the IC50 was greater than 2560 nM. For “A3-KAW (B-cell lymphoma, suspension, top dose 2.56 µM)”, the AUC was 0.852 and the IC50 was 1390 nM. Cell Line “NB69 (neuroblastoma, adherent, top dose 2.56 µM)” has an AUC of 0.746 and an IC50 of 736 nM. In the case of “Mo-T (hairy cell leukaemia, suspension, top dose 2.56 µM)”, the AUC is reported as 0.92 and the IC50 is reported as greater than 2560 nM. Work on “SW954 (urogenital system, adherent, top dose 2.56 µM)” yielded an AUC of 0.237 and an IC50 of 27.5 nM. “NCI-H1299 (large cell lung carcinoma, adherent, top dose 2.56 µM)” was tested, and the AUC was 0.928 and the IC50 was greater than 2560 nM. For “BICR10 (head and neck, adherent, top dose 2.56 µM)”, the AUC was 0.985 and the IC50 was greater than 2560 nM. For “TE-8 (oesophagus, adherent, top dose 2.56 µM)”, the AUC was 0.972 and the IC50 was greater than 2560 nM.
